# Measured values taken from PubChem BioAssay AID1476 (National Center for Advancing Translational Sciences (NCATS), 2009).
# Screen size: about 200,000 compounds; about 4,500 (2.2%) were called active. Inconclusive means that the source gave no clear call. Such entries were picked first, then a sample of the others. Calls come from the whole dose curve; as a rule, active = well fitted inhibition curve with a large enough effect; inconclusive = small, poorly fitted or top-dose-only effect, or effect the other way; inactive = flat fitted curve, though single readings scatter. Where the call is inconclusive, the potency comes from a doubtful curve fit.
# Biological target: Cruzipain (Trypanosoma cruzi) (UniProt P25779)
# Sequence of UniProt P25779 (P25779 whole entry, looked up): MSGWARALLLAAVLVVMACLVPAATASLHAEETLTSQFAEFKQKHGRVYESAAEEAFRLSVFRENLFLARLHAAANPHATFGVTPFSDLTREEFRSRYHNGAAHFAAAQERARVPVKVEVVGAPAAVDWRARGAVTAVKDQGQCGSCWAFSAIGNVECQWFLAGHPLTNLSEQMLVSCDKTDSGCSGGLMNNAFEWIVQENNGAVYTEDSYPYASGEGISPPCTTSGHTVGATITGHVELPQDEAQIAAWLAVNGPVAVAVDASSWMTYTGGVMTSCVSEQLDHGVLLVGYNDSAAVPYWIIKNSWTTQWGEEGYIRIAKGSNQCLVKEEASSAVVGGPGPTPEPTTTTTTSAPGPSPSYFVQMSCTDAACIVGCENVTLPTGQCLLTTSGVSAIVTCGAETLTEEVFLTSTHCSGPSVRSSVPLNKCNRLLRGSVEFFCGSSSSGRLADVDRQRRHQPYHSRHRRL
# Assay: qHTS Assay for Promiscuous and Specific Inhibitors of Cruzain (without detergent); note: nearly all actives have a fitted effect of over 40% in size;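 for max response, negative = inhibition: plate controls were enzyme without inhibitor for no effect and buffer without enzyme for full effect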
# Details: purified cruzain, Z-FR-AMC fluorescence, no detergent
# Procedure, shortened: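 Purified cruzain at 1.5 nM, pre-incubated 15 min with compound at room temperature in 100 mM sodium acetate pH 5.5, 5 mM DTT, 0.00005% Triton X-100. Reaction started with 2 uM Z-FR-AMC; AMC fluorescence increase over 60 s gives rate.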
# Potency is the fitted concentration of half-maximal effect; tags give direction and shape of the fitted curve.
SMILES,Potency,"max response, negative = inhibition"
CC(C)CCNC(=O)COc1ccc2c3c(c(=O)oc2c1)CCC3,"inconclusive: 20 µM [inhibitor, single point]",
Cc1cccc(-c2noc(-c3ccc(F)cc3)n2)c1,"inconclusive: 20 µM [inhibitor, partial curve, poor fit]",
O=C(c1ccccc1)[C@H]1[C@H](c2ccccc2)[C@@]2(N=C(c3ccccc3)OC2=O)C2c3ccccc3C=NN21 (some centres not stated),active: 10 µM,
CCn1c(C)nc2cc(C(=O)NNS(=O)(=O)c3ccc(C)cc3C)ccc21,,inactive: 9.43%
CCc1ccc2c(c1)C(c1ccc([N+](=O)[O-])cc1)=NNC(c1ccc(C)cc1)=N2,"inconclusive: 15.8 µM [inhibitor, single point]",
COc1cc(OC)c(NC(=O)Nc2cccc(OCc3cc(=O)n4ccccc4n3)c2)cc1Cl,,inactive: -12.5%
CCOC(=O)c1ccc2c(c1)N(Cc1ccc(F)cc1Cl)C(=O)c1ccccc1S2(=O)=O,active: 10 µM,
COc1ccccc1NC(=O)CC(=O)CSc1nnc(-c2ccc(C)cc2)n1C,"inconclusive: 39.8 µM [inhibitor, single point]",
COc1ccc(-c2cc(-c3nnc(-c4ccncc4)o3)c3ccccc3n2)cc1,"inconclusive: 25.1 µM [activator, single point]",
Nc1nnnn1/N=C/c1cccc(OCc2ccccc2Cl)c1,"inconclusive: 25.1 µM [inhibitor, single point]",
O=C(Nc1ccccc1)N1CC2(CCN(C(=O)c3cc(C(F)(F)F)cc(C(F)(F)F)c3)CC2)C1,"inconclusive: 31.6 µM [activator, single point]",
COc1ccc(NC(=O)c2cc3c(s2)CCC(C)C3)cc1S(=O)(=O)N1CCOCC1 (configuration not stated),"inconclusive: 39.8 µM [activator, single point]",
CC(C)Cc1ccc(S(=O)(=O)N2CCN(Cc3noc(CCC(=O)N4CCCCC4)n3)CC2)cc1,"inconclusive: 25.1 µM [activator, single point]",
CC1=C(c2ccc(F)cc2)S(=O)(=O)N=C1N1CCC(C(=O)NCCc2ccccc2C)CC1,,inactive: -2.21%
N=c1oc2ccccc2cc1-c1nc2ccccc2c(=O)[nH]1,,inactive: -6.08%
COC(=O)C(NC(=O)CCc1c(C)nc2c(-c3ccccc3)c(C)nn2c1C)C(C)C (configuration not stated),"inconclusive: 31.6 µM [activator, single point]",
O=S(=O)(NCCCCCCc1ccccc1)c1cccc2c(Cl)cccc12,"inconclusive: 31.6 µM [inhibitor, partial curve, poor fit]",
